5 molecules from paper PMC4117426 can be followed below.

In assay [1] the target is T1, 6×His-SlmA (E. coli), P0C093.
T1 chain: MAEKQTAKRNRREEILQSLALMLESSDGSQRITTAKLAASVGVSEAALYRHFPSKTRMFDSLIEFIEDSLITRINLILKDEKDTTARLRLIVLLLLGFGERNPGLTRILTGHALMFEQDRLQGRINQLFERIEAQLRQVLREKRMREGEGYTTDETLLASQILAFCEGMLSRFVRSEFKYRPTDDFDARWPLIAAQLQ
Put plainly: BLI; biotinylated SBS17-30mer (50 nM) on streptavidin tips, loaded with 4 µM SlmA or SlmA mutant; FtsZ or variants (4 µM, preincubated with 1 mM GDP) or peptides (up to 320 µM) in solution; 1× Pol buffer, room temperature; both purified. Conditions: remark: other sources report otherwise.

The target of another assay is FtsZ (E. coli) (UniProt P0A9A6). Put plainly: co-sedimentation; stable FtsZ polymers formed with GMPCPP (1 mM); proteins 5 µM, SBS17-30mer DNA 2 µM; Pol buffer (50 mM HEPES-NaOH pH 8.0, 200 mM KCl, 10 mM MgCl2); 80,000 rpm 15 min 25°C; supernatant and pellet by SDS-PAGE; both purified.
Assay [2] addresses T2, 6×His-FtsZ360 (E. coli), P0A9A6.
T2 chain: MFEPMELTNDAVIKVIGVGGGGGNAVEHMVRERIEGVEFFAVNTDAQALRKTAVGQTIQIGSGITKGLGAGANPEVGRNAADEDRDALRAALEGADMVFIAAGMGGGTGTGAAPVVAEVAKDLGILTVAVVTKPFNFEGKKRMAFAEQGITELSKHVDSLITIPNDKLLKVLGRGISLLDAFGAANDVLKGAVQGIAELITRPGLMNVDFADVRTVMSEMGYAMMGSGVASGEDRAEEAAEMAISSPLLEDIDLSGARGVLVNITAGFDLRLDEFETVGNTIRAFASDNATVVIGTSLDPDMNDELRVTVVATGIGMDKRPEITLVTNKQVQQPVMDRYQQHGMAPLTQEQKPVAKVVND
The assay is described as above. As to conditions: remark: other sources report otherwise.

Numbering of substitutions follows the chain as printed. Names may count otherwise. No constants are given. Whether binding was seen depends on the method and setting. Some binding calls cover weakened binding; strength is not graded here. Sequences can lack the tags named with a protein.

B1: 6×His-FtsZ360, P0A9A6 1-360 (domain or fragment)
chain: T2 chain
Regarding B1, the binding entry in assay [1] was “no binding (tested: 4 µM)”.

B2: FtsZ360, P0A9A6 1-360 (domain or fragment)
chain: T2 chain
With B2, the binding result in assay [1] is “no binding (tested: 4 µM)”.

B3: 6×His-SlmA (protein, UniProt P0C093 1-198)
chain: T1 chain
Regarding B3, the binding entry in the assay with FtsZ (E. coli) is “binds”.

B4: 6×His-SlmA-R73D (protein, UniProt P0C093 1-198)
chain: T1 chain with R73D
Turning to B4, in the assay with FtsZ (E. coli), the binding result is listed as “no binding (tested: 5 µM)”.

B5: 6×His-SlmA, P0C093 1-198 (protein)
chain: T1 chain
With B5, the binding entry in assay [2] is reported as “no binding (tested: 5 µM)”.
